According to PubChem BioAssay AID686978 (National Center for Advancing Translational Sciences (NCATS), 2013):
The whole screen tested about 420,000 compounds, of which about 64,000 (15%) were called active. This list was built around the results that the source calls inconclusive (neither active nor inactive); the mix of calls is not that of the screen. Calls come from the whole dose curve; as a rule, active = well fitted inhibition curve with a large enough effect; inconclusive = small, poorly fitted or top-dose-only effect; inactive = flat fitted curve, though single readings scatter. Potencies of inconclusive entries are left out as doubtful fits.

experiment: qHTS for Inhibitors of human tyrosyl-DNA phosphodiesterase 1 (TDP1): qHTS in cells in absence of CPT; conditions: DT40 Tdp1-/- hTDP1 cells, no CPT, ATP luminescence, 48 h; activity change, negative = growth inhibition: at 46.2 µM (top of the series) unless noted; note: nearly all actives have a fitted effect of over 55% in size
How it was run: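 A cellular qHTS used chicken DT40 cells lacking endogenous Tdp1 but carrying stably transfected human TDP1. Compounds were applied without camptothecin, and cell growth kinetics were judged by ATP-dependent luminescence after ≥48 hr.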
% is set by controls: 0 for no effect and ±100 for the full control effect; potency is the fitted concentration of half-maximal effect; tags give direction and shape of the fitted curve.

Compound | Potency | activity change, negative = growth inhibition
CCSc1ncc(Cl)c(C(=O)N(Cc2ccc(N(C)C)cc2)Cc2ccco2)n1 | active: 20.6 µM | –
CC1(C)CC(NC(=O)C2CCN(S(=O)(=O)c3ccc(F)cc3)CC2)CC(C)(C)N1 | – | inactive: 26.8%
CCOc1ccc2nc(NC(=O)CN3C(=O)NC4(CCCC4)C3=O)sc2c1 | – | inactive: -5.83%
COc1ccc(N(CC(=O)NCCC2=CCCCC2)S(=O)(=O)c2ccccc2)c(OC)c1 | – | inactive: 5.84%
COc1ccc(-c2noc(-c3ccccc3-c3ccccc3)n2)cc1OC | active: 25.9 µM | –
COc1ccc(N(CCCN2C(=O)c3cccc4cccc(c34)C2=O)C(=O)c2ccncc2)cc1 | inconclusive [inhibitor, single point] | –
Cc1ccc(C)n1-c1ccccc1N1CCCCC1 | inconclusive [inhibitor, single point] | –
O=C(N/N=C/c1ccccn1)c1cccc([N+](=O)[O-])c1 | active: 16.4 µM | –
Cc1ccc2nc(-c3ccccn3)oc2c1 | inconclusive [inhibitor, partial curve] | –
COc1ccc(CCN(C)C(=O)c2cc(-c3ccccc3)nc3ccc(C)cc23)cc1OC | inconclusive [inhibitor, single point] | –
Cc1cc(NCc2ccccc2Cl)n2cnnc2n1 | active: 9.2 µM | –
CN1c2ccccc2-c2nc3ccccc3n2C1c1ccccn1 (centres undefined) | active: 16.4 µM | –
CC1CCN(C(=O)c2ccc(COc3ccccc3Cl)o2)CC1 | inconclusive [inhibitor, single point] | –
Cc1cc(C(=O)COc2ncnc3sccc23)c(C)n1C1CC1 | inconclusive [inhibitor, single point] | –
CCCCOCCCNC(=O)C[C@@H]1C[C@@]2(C(=O)OCC)CCC=C2N(Cc2ccccc2)C1=O | inconclusive [inhibitor, single point] | –
Cc1cccc(NC(=O)c2cc(-c3ccc4c(c3)OCCO4)on2)c1 | inconclusive [inhibitor, single point] | –
COC(=O)CNc1nc(-c2ccncc2)nc2ccccc12 | inconclusive [inhibitor, single point] | –
Cc1ccc(CNC(=O)C2CCCCN2S(=O)(=O)c2ccc(F)cc2)cc1 (centres undefined) | active: 25.9 µM | –
CCOc1cc(C2Nc3ccccc3C(=O)N2Cc2ccco2)ccc1OCc1ccccc1Cl (centres undefined) | active: 3.55 µM | –
Nc1ncnc2c1ncn2[C@@H]1O[C@H](C(=O)N2CCC(F)(F)CC2)[C@@H](O)[C@H]1O | – | inactive: -17%
CC12CCC(C(=O)N3CCC(Cc4ccccc4)CC3)(C(=O)C1=O)C2(C)C (centres undefined) | inconclusive [inhibitor, single point] | –
O=C(CN1C(=O)NC2(CCc3ccccc3C2)C1=O)NCC(F)(F)F (centres undefined) | – | inactive: 6.37%
COc1ccc(-n2c(SCCC(=O)O)nnc2-c2ccncc2)cc1 | inconclusive [inhibitor, single point] | –
CN(C)Cc1nc2c(c(=O)[nH]1)C1(CCCCC1)Cc1ccccc1-2 | active: 23.1 µM | –
CC(=O)Nc1ccc(S(=O)(=O)N2C3CCCC2CC(NC(=O)C2CCCCC2)C3)cc1 (centres undefined) | inconclusive [inhibitor, single point] | –

Compound | Potency | activity change, negative = growth inhibition
COc1ccc(C(CNC(=O)c2cccc(S(=O)(=O)N3CCCCC3)c2)N2CCCC2)cc1 (centres undefined) | – | inactive: -9%
COc1ccc(Cl)cc1Cn1c(C)c(C(=O)NCc2cccc(Cl)c2)sc1=O | inconclusive [inhibitor, single point] | –
CCOC(=O)c1nnn2c1nc(N1CCN(c3ccccc3)CC1)c1ccccc12 | active: 14.6 µM | –
CC(=O)[C@@H]1[C@@H]2C(=O)N(c3ccccc3F)C(=O)[C@@H]2[C@H]2c3ccccc3C=NN12 | – | inactive: 0.915%
CCOC(=O)N1CCN(S(=O)(=O)c2c(C)nc3sccn3c2=O)CC1 | – | inactive: 0.98%
Cc1ccc(CSc2nnc(-c3ccccc3N)c(=O)[nH]2)cc1 | inconclusive [inhibitor, single point] | –
Cc1ccc(O)c2ncccc12 | active: 4.73 µM | –
COc1ccc(OCC(O)CNC(=O)c2ccccc2C(=O)O)cc1 (centres undefined) | – | inactive: 2.78%
Cc1ccc2c(c1)nnn2C1CCN(C(=O)C23CC4CC(CC(C4)C2)C3)CC1 | inconclusive [inhibitor, single point] | –
CCOC(=O)CN(C(=O)COc1nc(-c2ccccc2)cc(C)c1C#N)c1ccccc1C | active: 10.3 µM | –
O=C(CSc1nc(Nc2ccccc2)nc(N2CCOCC2)n1)Nc1cccc([N+](=O)[O-])c1 | inconclusive [inhibitor, single point] | –
CCCCn1nnnc1C(CCc1ccccc1)N1CCN(C/C=C/c2ccccc2)CC1 (centres undefined) | active: 23.1 µM | –
CSc1ncc(C(=O)Nc2cccc(C)c2C)c(-c2ccccc2)n1 | – | inactive: -28.1%
COc1ccc(CNC(=O)C2CCN(S(=O)(=O)c3ccc(F)cc3)CC2)cc1 | – | inactive: -23.9%
Cc1ccc(NC(=O)CSc2nc(-c3ccc(C(C)(C)C)cc3)nc3cc(=O)[nH]n23)cc1C | inconclusive [inhibitor, single point] | –
COc1cccc2c(N/N=C/c3ccc(O)c(O)c3)cc(C)nc12 | – | inactive: -17.6%
O=C(/C=C/c1ccc(S(=O)(=O)N2CCOCC2)cc1)N1CCN(c2ccc(F)cc2)CC1 | active: 3.66 µM | –
COC(=O)C1=C(O)/C(=C\c2ccc(OCC(=O)Nc3ccccc3OC)cc2)N=C1C | inconclusive [inhibitor, single point] | –
Cc1occc1-c1nnc(SCC(=O)c2ccc(F)cc2)n1Cc1ccco1 | inconclusive [inhibitor, single point] | –
Cc1cccc(C)c1NC(=O)Nc1nc(C(N)c2ccccc2Cl)cs1 (centres undefined) | active: 16.4 µM | –
Cc1ccc(S(=O)(=O)N(C)c2ccc(C(=O)Nc3cccc(C)n3)cc2)cc1 | inconclusive [inhibitor, single point] | –
CC(C)Oc1ccc(CNC(=O)CCC(=O)N2CCSc3ccccc32)cc1 | inconclusive [inhibitor, single point] | –
CCOCCCNC(=S)N(Cc1ccco1)Cc1cc2cc3c(cc2[nH]c1=O)OCCO3 | inconclusive [inhibitor, partial curve] | –
COC(=O)c1ccc(NC(=O)COC(=O)C2=NN(c3ccccc3)C(=O)CC2)cc1 | – | inactive: 4.61%
C/C(=N\NC(=O)c1cc(C)oc1C)c1ccc(C)c([N+](=O)[O-])c1 | inconclusive [inhibitor, full curve] | –

Compound | Potency | activity change, negative = growth inhibition
CC(=O)c1ccc(-c2ccc3c4c(ccc3c2)OC(CNC(=O)[C@@H]2CCCN2C(C)=O)C4)s1 (some centres undefined) | inconclusive [inhibitor, single point] | –
COc1ccc(CNC(=O)CCNC(=O)c2ccco2)cc1OC | – | inactive: 6.1%
O=C(NCC1CCCO1)c1ccc([N+](=O)[O-])o1 (centres undefined) | – | inactive: -7.5%
N/C(=N\OC(=O)c1ccccc1Cl)c1ccccn1 | inconclusive [inhibitor, single point] | –
COc1cccc(OC)c1C(=O)OCC(=O)NC(=O)NCc1ccccc1 | inconclusive [inhibitor, single point] | –
CCO[C@H]1OC(C(=O)N2CCN(Cc3ccccc3)CC2)=C[C@@H](C)[C@@H]1CCCO | inconclusive [inhibitor, single point] | –
CC(OCC(O)CNCC1COc2ccccc2O1)c1ccc(Cl)cc1 (centres undefined) | inconclusive [inhibitor, single point] | –
CN(C)c1ccc(NC(=O)CN2C(=O)CC(c3ccccc3)=Nc3ccccc32)cc1 | – | inactive: -20.8%
Cc1cccc(C)c1NC(=O)CNC(=O)c1ccncc1 | – | inactive: 0.79%
CCC(C)(C)NC(=O)C(c1ccccc1F)N(C(=O)c1ccn[nH]1)c1ccccc1 (centres undefined) | inconclusive [inhibitor, single point] | –
COc1ccc(/C=C\C(=O)NCc2ccc3[nH]c(C)cc3c2)cc1OC | inconclusive [inhibitor, single point] | –
N#Cc1nc(COc2ccccc2Cl)oc1NCc1ccc(F)cc1 | inconclusive [inhibitor, single point] | –
COc1cc(OC)c(NC(=O)N2CCOCC2)cc1Cl | – | inactive: 4.27%
CN(C(=O)C1CCOC1)c1nnc(-c2cccnc2)s1 (centres undefined) | – | inactive: -7.53%
O=C(Nc1ccc2c(c1)OCCO2)C1c2ccccc2OCC(=O)N1CC(F)(F)F (centres undefined) | – | inactive: -17.1%
COc1ccc(/C=C2/SC(=O)N(CC(=O)Nc3cc(C)on3)C2=O)cc1OC | – | inactive: -1.01%
Cc1ccc(NC(=O)N2CCCC2C(=O)NCC2CCCO2)cc1 (centres undefined) | – | inactive: 17.9%
Cc1ccc(N(C(=O)c2nsc(Cl)c2Cl)C(C(=O)NC2CCCC2)c2ccc(O)cc2)cc1C (centres undefined) | inconclusive [inhibitor, single point] | –
CCCCOC(=O)c1ccc(NC(=O)C(=O)NCC2CCCO2)cc1 (centres undefined) | inconclusive [inhibitor, partial curve] | –
CCCCNc1nc2cccnc2s1 | inconclusive [inhibitor, single point] | –
CC12CC[C@@](C(=O)O)(C(=O)C1=O)C2(C)C | – | inactive: 4.13% [at 9.04 µM]
COC(=O)CC(=O)CSc1nc2c(cc1C#N)CCC2 | inconclusive [inhibitor, single point] | –
O=C(COC(=O)/C=C/c1cccc(C(F)(F)F)c1)NCc1cccs1 | – | inactive: -4.1%
COc1ccc2nc(NC(=O)CS(=O)(=O)c3ccc(C)cc3)sc2c1 | inconclusive [inhibitor, single point] | –
